# “And” between values parts separate entries of the source, which are not always exact repeats. Equal values may be shown once. This list was built around the results that the source calls inconclusive (neither active nor inactive); the mix of calls is not that of the screen. For some of these results: Potencies of inconclusive entries are doubtful fits and often do not repeat. More than one record can exist for a structure, and the calls need not agree. The source made the active and inactive calls. The call rests on the fitted dose curve; in most records, active means well fitted inhibition curve with a large enough effect in the repeat runs; inconclusive means weak or mixed curves; inactive means no such curve, though single readings can be large or run the other way.
# Legend:
# [1] = target: Cytochrome P450 2C19 (Homo sapiens) (UniProt P33261); assay: Cytochrome P450 Family 2 Subfamily C Member 19 (CYP2C19) small molecule antagonists: luciferase reporter qHTS assay (AID 1671197); settings: P450-Glo CYP2C19 enzyme, luciferin luminescence, 1 h; series mostly up to 115 µM; further: nearly all actives have a fitted effect of over 65% in size; on activity change, negative = inhibition: on the % scale 0 is the no-effect control and ±100 the full control effect
# Summary of the method: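 Quantitative high-throughput screen of the Tox21 library using CYP2C19 with proluciferin substrate. Reaction: NADPH regeneration, 37C, 1 h, after 10 min compound preincubation at room temperature. Readout: luminescence.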
# [2] = target: Cytochrome P450 1A2 (Homo sapiens) (UniProt P05177); assay: Cytochrome P450 Family 1 Subfamily A Member 2 (CYP1A2) small molecule antagonists: luciferase reporter qHTS assay (AID 1671199); settings: P450-Glo CYP1A2 enzyme, luciferin luminescence, 1 h; series mostly up to 115 µM; further: nearly all actives have a fitted effect of over 50% in size; on activity change, negative = inhibition: on the % scale 0 is the no-effect control and ±100 the full control effect
# Summary of the method: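 Compounds were incubated with CYP1A2 and a luminogenic proluciferin substrate for 10 min at room temperature before the reaction was started with NADPH regeneration solution. After 1 h, detection reagent was added and light output, proportional to CYP activity, was recorded.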
# [3] = target: Cytochrome P450 2C9 (Homo sapiens) (UniProt P11712); assay: Cytochrome P450 Family 2 Subfamily C Member 9 (CYP2C9) small molecule antagonists: luciferase reporter qHTS assay (AID 1671198); settings: P450-Glo CYP2C9 enzyme assay, luciferin luminescence; series mostly up to 115 µM; further: nearly all actives have a fitted effect of over 50% in size
# Summary of the method: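 Enzyme-substrate mix preincubated with compound 10 min at room temperature; reaction started with NADPH regeneration solution, 1 h 37C. Luminescent luciferin product read after 20 min detection reagent.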
# [4] = target: Cytochrome P450 3A4 (Homo sapiens) (UniProt P08684); assay: Cytochrome P450 Family 3 Subfamily A Member 4 (CYP3A4) small molecule antagonists: luciferase reporter qHTS assay (AID 1671201); settings: P450-Glo CYP3A4 enzyme, luciferin luminescence, 1 h; series mostly up to 115 µM; further: nearly all actives have a fitted effect of over 50% in size; on activity change, negative = inhibition: on the % scale 0 is the no-effect control and ±100 the full control effect
# Summary of the method: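 Recombinant human CYP3A4 converts a proluciferin substrate to luciferin over 1 h at room temperature after NADPH regeneration solution is added (compound preincubated 10 min); detection reagent stops reaction, luminescence read 20 min later as relative units.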
# Potency means the concentration at half of the fitted maximal effect; tags describe the fitted curve by direction and shape.
# Sequence of UniProt P33261 (P33261 whole entry, looked up): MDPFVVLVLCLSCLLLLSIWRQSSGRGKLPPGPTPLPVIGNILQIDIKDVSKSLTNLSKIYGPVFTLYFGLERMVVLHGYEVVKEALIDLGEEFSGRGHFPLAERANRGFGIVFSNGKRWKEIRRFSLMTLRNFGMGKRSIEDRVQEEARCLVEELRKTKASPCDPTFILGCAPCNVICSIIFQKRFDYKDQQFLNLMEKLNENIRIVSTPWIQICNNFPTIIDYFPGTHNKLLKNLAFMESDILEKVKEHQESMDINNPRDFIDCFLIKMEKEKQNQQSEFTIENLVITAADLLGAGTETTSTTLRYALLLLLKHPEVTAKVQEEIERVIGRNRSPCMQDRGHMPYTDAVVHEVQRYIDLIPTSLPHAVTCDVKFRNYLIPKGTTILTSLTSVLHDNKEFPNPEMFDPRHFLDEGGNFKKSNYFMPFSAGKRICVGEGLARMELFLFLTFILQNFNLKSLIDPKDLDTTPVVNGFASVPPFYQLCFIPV
# Sequence of UniProt P05177 (P05177 whole entry, looked up): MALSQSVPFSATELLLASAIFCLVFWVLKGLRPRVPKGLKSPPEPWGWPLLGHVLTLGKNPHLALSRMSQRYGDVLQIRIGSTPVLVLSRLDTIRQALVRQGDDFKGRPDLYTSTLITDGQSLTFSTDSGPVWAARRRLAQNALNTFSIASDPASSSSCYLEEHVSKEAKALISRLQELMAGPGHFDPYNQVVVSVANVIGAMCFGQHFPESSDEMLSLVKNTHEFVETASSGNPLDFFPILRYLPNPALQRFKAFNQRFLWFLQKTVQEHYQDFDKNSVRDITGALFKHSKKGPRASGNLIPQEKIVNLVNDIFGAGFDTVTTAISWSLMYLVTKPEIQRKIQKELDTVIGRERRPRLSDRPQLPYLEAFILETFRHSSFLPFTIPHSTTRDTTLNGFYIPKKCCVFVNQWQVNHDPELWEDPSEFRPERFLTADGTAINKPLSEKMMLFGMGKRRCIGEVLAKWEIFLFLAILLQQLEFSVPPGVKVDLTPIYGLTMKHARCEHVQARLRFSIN
# Sequence of UniProt P08684 (P08684 whole entry, looked up): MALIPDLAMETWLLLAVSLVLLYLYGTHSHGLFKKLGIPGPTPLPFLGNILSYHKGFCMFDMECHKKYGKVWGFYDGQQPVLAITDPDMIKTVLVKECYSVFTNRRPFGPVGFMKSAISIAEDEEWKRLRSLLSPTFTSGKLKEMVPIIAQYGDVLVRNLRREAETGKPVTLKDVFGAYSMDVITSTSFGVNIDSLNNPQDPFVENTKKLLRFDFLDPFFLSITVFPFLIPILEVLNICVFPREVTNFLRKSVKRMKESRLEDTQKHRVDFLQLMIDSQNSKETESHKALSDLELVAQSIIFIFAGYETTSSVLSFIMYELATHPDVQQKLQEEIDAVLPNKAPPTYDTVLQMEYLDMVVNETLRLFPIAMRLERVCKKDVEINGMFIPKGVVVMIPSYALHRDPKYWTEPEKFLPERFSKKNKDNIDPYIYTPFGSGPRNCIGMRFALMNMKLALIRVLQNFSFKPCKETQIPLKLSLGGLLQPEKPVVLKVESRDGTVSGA
# Sequence of UniProt P11712 (P11712 whole entry, looked up): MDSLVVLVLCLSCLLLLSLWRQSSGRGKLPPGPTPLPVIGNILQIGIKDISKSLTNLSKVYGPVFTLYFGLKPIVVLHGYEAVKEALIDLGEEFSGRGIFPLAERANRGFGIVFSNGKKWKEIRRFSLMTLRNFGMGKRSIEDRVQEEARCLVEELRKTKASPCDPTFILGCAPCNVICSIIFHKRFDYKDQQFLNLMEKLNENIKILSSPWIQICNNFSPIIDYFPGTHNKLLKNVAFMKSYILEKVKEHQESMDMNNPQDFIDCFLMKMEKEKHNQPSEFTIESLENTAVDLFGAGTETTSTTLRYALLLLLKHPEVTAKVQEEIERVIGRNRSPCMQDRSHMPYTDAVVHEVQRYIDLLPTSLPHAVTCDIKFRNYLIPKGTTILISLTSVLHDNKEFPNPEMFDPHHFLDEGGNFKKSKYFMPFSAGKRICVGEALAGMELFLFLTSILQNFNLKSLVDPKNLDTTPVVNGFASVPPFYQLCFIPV
Structure (SMILES),"activity change, negative = inhibition [1]",Potency [2],Potency [1],Potency [3],Potency [4]
Cc1cc(C)c(N=Nc2c(O)c(S(=O)(=O)O)cc3cc(S(=O)(=O)O)ccc23)cc1C,inactive: 9.38% [at 10.5 µM],"inconclusive: 3.52 µM [inhibitor, partial curve]",–,–,–
NC(=O)N1c2ccccc2C=Cc2ccccc21,–,"inconclusive: 19.9 µM [inhibitor, full curve] and inactive","inconclusive: 100 µM [inhibitor, single point]","inconclusive: 70.6 µM [inhibitor, partial curve, poor fit] and inconclusive: 79.6 µM [inhibitor, partial curve]",inactive
CC(C)(C)CCCCCCOC(=O)c1ccccc1C(=O)OCCCCCCC(C)(C)C,–,inactive,"inconclusive: 89.5 µM [inhibitor, single point]",–,–
CCOC(N)=O,–,"inconclusive: 37.9 µM [inhibitor, partial curve, poor fit] and inactive",active: 60 µM and inactive,–,inactive
COC(=O)CC(=O)C(C)(C)C,–,"inconclusive: 39.9 µM [inhibitor, partial curve]",–,"inconclusive: 39.9 µM [inhibitor, partial curve]",–
CCCCC(CC)COP(=O)(OCC(CC)CCCC)OCC(CC)CCCC (stereo unspecified),–,"inactive and inconclusive: 25.2 µM [inhibitor, partial curve]",–,"inconclusive: 31.7 µM [inhibitor, single point]",inactive and active: 5.64 µM

# From PubChem BioAssay (Tox21)
